Source: paper PMC5029660, “The DEK oncogene activates VEGF expression and promotes tumor angiogenesis and growth in HIF-1α-dependent and -independent manners”
These are yes or no findings as the source states them, for the method shown. For some of these results: In cells and extracts the contact can be indirect. Some binding calls cover weakened binding; strength is not graded here. For some of these results: Where a sequence is shown, tags or fusion partners need not be part of it. One block for each molecule: values may come before it.

Amino acid sequences for entries named in this document (tags omitted).
UniProt Q09472: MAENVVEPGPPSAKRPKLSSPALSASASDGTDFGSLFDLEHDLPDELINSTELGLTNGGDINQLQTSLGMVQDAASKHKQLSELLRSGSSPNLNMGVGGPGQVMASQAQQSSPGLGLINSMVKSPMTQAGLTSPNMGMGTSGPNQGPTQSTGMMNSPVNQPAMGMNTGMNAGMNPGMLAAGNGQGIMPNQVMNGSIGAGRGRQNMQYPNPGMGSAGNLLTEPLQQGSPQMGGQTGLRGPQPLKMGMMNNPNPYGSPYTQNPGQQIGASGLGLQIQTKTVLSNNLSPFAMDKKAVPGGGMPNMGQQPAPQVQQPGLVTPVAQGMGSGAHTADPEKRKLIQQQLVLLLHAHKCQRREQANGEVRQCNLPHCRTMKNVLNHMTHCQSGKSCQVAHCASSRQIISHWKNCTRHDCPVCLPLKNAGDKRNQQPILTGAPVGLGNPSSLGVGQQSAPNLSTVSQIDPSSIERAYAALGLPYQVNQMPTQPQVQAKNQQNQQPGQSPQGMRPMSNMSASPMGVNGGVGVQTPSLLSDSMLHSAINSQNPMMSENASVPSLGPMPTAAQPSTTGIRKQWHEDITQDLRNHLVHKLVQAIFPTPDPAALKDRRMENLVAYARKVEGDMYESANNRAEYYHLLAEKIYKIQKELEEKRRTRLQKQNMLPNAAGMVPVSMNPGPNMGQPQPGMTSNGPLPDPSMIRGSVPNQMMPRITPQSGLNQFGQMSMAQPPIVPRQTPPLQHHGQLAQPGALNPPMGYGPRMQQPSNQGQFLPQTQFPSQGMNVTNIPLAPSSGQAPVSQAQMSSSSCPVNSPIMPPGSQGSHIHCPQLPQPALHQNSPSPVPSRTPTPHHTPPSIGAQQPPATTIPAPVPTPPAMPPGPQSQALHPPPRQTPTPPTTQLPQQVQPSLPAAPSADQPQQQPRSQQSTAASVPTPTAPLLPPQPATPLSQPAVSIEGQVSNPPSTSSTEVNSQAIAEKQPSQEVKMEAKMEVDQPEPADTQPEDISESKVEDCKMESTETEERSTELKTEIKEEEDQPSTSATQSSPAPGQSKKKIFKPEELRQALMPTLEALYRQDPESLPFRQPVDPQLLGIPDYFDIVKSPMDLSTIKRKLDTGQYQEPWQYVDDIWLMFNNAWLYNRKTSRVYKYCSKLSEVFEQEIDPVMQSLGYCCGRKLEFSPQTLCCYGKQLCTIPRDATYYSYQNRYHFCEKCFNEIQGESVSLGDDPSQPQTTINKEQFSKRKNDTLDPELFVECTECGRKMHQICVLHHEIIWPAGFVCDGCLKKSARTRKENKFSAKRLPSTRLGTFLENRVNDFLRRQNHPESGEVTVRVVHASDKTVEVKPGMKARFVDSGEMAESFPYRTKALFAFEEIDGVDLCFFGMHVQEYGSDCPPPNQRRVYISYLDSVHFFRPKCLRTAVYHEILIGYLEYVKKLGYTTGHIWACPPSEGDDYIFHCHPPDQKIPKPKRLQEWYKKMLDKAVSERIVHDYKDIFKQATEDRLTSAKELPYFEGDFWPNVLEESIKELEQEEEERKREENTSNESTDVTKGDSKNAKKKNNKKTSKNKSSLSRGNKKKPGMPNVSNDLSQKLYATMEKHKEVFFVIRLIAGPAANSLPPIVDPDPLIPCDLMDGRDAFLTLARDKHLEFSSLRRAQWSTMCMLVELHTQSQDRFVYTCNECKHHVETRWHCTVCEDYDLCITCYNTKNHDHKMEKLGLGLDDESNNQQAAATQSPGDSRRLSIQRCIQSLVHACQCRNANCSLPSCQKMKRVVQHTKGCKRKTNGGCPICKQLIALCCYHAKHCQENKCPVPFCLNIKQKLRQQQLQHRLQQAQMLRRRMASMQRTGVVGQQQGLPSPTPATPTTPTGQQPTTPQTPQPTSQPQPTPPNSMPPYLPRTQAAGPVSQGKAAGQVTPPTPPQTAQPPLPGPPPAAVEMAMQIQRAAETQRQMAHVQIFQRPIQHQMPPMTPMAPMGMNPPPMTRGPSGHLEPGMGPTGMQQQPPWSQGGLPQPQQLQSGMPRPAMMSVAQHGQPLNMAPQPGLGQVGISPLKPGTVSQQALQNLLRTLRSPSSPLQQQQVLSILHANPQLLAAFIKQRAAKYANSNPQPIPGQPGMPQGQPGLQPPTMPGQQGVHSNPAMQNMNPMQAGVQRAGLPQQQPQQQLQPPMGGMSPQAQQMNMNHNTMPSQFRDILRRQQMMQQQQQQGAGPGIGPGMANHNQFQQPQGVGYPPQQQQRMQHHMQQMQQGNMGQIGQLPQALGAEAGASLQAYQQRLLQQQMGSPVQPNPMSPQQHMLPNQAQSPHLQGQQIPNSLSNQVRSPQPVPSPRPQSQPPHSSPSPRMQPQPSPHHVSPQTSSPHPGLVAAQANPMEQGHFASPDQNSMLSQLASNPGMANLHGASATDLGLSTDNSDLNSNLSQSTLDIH

Key:
MYC-tagged DEK = target: T1, MYC-tagged DEK (UniProt P35659); assay: co-IP; HEK293T cells cotransfected with FLAG- and MYC-tagged proteins; lysates immunoprecipitated with anti-FLAG or anti-MYC, immunoblot
T1 sequence: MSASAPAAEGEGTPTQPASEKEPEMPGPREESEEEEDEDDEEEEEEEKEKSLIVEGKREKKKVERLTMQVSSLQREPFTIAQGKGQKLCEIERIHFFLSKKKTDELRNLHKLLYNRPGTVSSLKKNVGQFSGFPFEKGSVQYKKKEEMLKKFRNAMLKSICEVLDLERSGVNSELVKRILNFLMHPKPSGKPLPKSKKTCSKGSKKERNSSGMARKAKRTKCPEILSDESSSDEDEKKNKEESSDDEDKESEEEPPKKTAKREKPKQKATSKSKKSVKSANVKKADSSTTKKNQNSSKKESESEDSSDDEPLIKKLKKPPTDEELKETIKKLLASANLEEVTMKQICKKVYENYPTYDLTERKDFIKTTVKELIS

FLAG-tagged DEK [1] = target: T2, FLAG-tagged DEK (UniProt P35659); assay: co-IP; co-IP with re-IP; HEK293T cotransfected with MYC-HIF-1α, FLAG-DEK and HA-p300; 1st IP anti-FLAG, eluted with FLAG peptide, re-IP with anti-Myc or normal IgG
T2 sequence: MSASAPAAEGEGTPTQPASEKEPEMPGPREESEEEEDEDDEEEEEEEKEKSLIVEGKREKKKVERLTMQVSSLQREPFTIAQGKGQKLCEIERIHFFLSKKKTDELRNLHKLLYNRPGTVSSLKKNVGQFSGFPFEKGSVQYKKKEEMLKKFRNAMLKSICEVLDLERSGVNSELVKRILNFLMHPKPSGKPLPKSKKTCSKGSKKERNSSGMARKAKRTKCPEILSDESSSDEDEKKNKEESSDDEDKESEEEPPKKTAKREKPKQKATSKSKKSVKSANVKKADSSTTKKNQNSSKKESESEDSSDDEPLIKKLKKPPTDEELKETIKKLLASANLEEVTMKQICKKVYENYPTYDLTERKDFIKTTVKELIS

GST-DEK = target: T3, GST-DEK (UniProt P35659); assay: pull-down; GST pull-down; purified His-tagged HIF-1α incubated with purified GST-DEK or GST beads; immunoblot with anti-His; both purified
T3 sequence: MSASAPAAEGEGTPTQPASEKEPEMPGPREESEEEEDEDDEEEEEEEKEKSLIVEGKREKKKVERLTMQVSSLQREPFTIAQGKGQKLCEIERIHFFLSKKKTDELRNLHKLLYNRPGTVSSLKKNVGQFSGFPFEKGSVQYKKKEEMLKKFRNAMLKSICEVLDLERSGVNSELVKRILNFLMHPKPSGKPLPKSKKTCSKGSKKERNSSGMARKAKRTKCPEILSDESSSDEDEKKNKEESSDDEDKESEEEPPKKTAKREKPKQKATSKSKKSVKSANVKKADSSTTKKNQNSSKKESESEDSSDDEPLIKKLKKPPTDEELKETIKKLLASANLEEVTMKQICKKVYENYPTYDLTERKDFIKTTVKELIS

FLAG-tagged DEK (1-187) = target: T4, FLAG-tagged DEK (1-187) (UniProt P35659); assay: co-IP; HEK293T cells cotransfected with FLAG- and MYC-tagged proteins; lysates immunoprecipitated with anti-FLAG or anti-MYC, immunoblot
T4 sequence: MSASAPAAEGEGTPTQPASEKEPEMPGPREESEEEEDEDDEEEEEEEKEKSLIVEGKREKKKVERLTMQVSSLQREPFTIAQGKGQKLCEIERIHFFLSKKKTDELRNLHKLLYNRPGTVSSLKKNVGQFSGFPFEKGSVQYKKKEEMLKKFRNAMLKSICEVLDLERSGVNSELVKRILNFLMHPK

[2] = target: T5, FLAG-tagged DEK (188-375) (UniProt P35659); assay: as above
T5 sequence: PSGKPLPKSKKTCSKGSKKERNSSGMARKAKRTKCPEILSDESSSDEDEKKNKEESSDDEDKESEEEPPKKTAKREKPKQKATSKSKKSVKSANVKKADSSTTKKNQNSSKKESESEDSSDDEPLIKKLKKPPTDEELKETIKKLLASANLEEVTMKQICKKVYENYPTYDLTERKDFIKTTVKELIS

FLAG-tagged DEK [3] = target: T2, FLAG-tagged DEK; assay: as above
[4] = target: T6, endogenous DEK (human (endogenous in MCF-7)) (UniProt P35659); assay: co-IP; reciprocal co-IP of endogenous proteins in MCF-7 cells under normoxic or hypoxic conditions for 24 h; antibodies against DEK, HIF-1α or p300
T6 sequence: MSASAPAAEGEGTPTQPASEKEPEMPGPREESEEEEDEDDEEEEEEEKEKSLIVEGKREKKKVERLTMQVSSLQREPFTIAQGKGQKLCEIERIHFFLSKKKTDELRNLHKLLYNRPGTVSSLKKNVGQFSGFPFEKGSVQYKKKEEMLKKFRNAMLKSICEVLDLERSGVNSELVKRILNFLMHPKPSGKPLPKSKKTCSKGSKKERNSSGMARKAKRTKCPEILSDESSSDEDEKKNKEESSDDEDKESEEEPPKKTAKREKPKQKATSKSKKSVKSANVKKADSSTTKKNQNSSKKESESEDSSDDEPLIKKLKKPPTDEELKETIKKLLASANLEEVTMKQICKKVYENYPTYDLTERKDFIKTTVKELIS

[5] = target: T6, endogenous DEK (human (endogenous in MCF-7)); assay: re-ChIP; MCF-7 cells, hypoxia 24 h; sequential chromatin immunoprecipitation for DEK and HIF-1α, real-time PCR of the HRE and DRE1 sites of the VEGF promoter
[6] = target: FLAG-tagged HIF-1α (1-166) (UniProt Q16665); assay: co-IP; HEK293T cells cotransfected with FLAG- and MYC-tagged proteins; lysates immunoprecipitated with anti-FLAG or anti-MYC, immunoblot
[7] = target: FLAG-tagged HIF-1α (167-481) (UniProt Q16665); assay: as above
[8] = target: FLAG-tagged HIF-1α (482-826) (UniProt Q16665); assay: as above

binding (MYC-tagged DEK): binds
Molecule: FLAG-tagged p300 (from UniProt Q09472 1-2414)

binding (FLAG-tagged DEK [1]): binds
Molecule: HA-tagged p300 (from UniProt Q09472 1-2414)

binding (GST-DEK): binds
Molecule: His-tagged HIF-1α (from UniProt Q16665 1-826)

binding (FLAG-tagged DEK (1-187)): no binding | binding [2]: binds | binding (FLAG-tagged DEK [3]): binds | binding (FLAG-tagged DEK [1]): binds
Molecule: MYC-tagged HIF-1α (from UniProt Q16665 1-826)

binding [4]: binds | binding [5]: binds
Molecule: endogenous HIF-1α (from UniProt Q16665 1-826)

binding [4]: binds
Molecule: endogenous p300 (from UniProt Q09472 1-2414)

binding [6]: no binding | binding [7]: binds | binding [8]: no binding
B1: MYC-tagged DEK (protein, UniProt P35659 1-375)
chain: MSASAPAAEGEGTPTQPASEKEPEMPGPREESEEEEDEDDEEEEEEEKEKSLIVEGKREKKKVERLTMQVSSLQREPFTIAQGKGQKLCEIERIHFFLSKKKTDELRNLHKLLYNRPGTVSSLKKNVGQFSGFPFEKGSVQYKKKEEMLKKFRNAMLKSICEVLDLERSGVNSELVKRILNFLMHPKPSGKPLPKSKKTCSKGSKKERNSSGMARKAKRTKCPEILSDESSSDEDEKKNKEESSDDEDKESEEEPPKKTAKREKPKQKATSKSKKSVKSANVKKADSSTTKKNQNSSKKESESEDSSDDEPLIKKLKKPPTDEELKETIKKLLASANLEEVTMKQICKKVYENYPTYDLTERKDFIKTTVKELIS
